{"source": "PubChem BioAssay AID1508642", "about": "(National Center for Advancing Translational Sciences (NCATS), 2021)", "note": "The whole screen tested about 43,000 compounds, of which about 200 (0.47%) were called active. Not shown: some 12% with an inconclusive outcome. Calls follow the shape of the dose curve; as a rule, active = well fitted cell-killing curve with a large enough effect; inconclusive = small, poorly fitted or top-dose-only effect, or effect the other way; inactive = flat fitted curve, though single readings scatter. This is one part of the list. % is scaled to controls: 0 for no effect and ±100 for the full control effect."}
{"test": "Cell viability qHTS assay in S16 Pmp22-F2sN cells; also: nearly all actives have a fitted effect of over 65% in size", "settings": "S16 Pmp22-F2sN Schwann cells (luciferase reporters placed in the Pmp22 gene) viability, CellTiter-Glo, 24 h; series mostly up to 57.5 µM; activity change, negative = cytotoxicity: at the top concentration", "summary_of_the_method": "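Luminescence from CellTiter-Glo, read by CCD camera after a 15 min room-temperature incubation, served as the viability signal. Reporter Schwann cells (S16 Pmp22-F2sN) had been treated with pin-transferred compounds for 24 h at 37C.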"}
{"smiles": "Cc1cc2c(cc1S(=O)(=O)CCC(=O)NC1CCC(C)CC1)OCC(=O)N2", "note": "(configuration not stated)", "activity change, negative = cytotoxicity": "inactive: -2.92%"}
{"smiles": "O=C1CC(c2nnc(Cc3ccc(Cl)cc3)o2)CN1c1ccccc1", "note": "(configuration not stated)", "activity change, negative = cytotoxicity": "inactive: 5.48%"}
{"smiles": "CCn1c(=N)c(C(=O)NC2CCCCC2)cc2c(=O)n3cccc(C)c3nc21", "activity change, negative = cytotoxicity": "inactive: 2.21%"}
{"smiles": "O=c1cc2nc(-c3cccs3)nc(SCCOc3ccc(Cl)cc3)n2[nH]1", "activity change, negative = cytotoxicity": "inactive: -18.8%"}
{"smiles": "Cc1ccc(N2CCN(C(=O)NCc3noc4ccccc34)CC2C)cc1", "note": "(configuration not stated)", "activity change, negative = cytotoxicity": "inactive: -10.3%"}
{"smiles": "COc1ccccc1N1CCN(C(=O)c2cnn(-c3ccc(C)c(C)c3)c2C2CCN(C(=O)OC(C)(C)C)CC2)CC1", "activity change, negative = cytotoxicity": "inactive: 0.406%"}
{"smiles": "COc1cc(Cl)c(C)cc1Nc1nc2ccccc2nc1NS(=O)(=O)c1ccccc1", "activity change, negative = cytotoxicity": "inactive: -6.26%"}
{"smiles": "CCCOc1ccc(C(=O)N(Cc2cccs2)c2ccc(C)cc2)cc1", "activity change, negative = cytotoxicity": "inactive: -7.61%"}
{"smiles": "COc1ccc(Cl)cc1S(=O)(=O)N1CCN(Cc2cccc(F)c2)CC1", "activity change, negative = cytotoxicity": "inactive: 14.6%"}
{"smiles": "CCOC(=O)c1c(C)oc2ncnc(NCCCN3CCN(c4cc(C)ccc4C)CC3)c12", "activity change, negative = cytotoxicity": "inactive: -27.1%"}
{"smiles": "CCOC(=O)c1ccc(NC(=O)C2CCN(C(=O)N3CC(C)Oc4ccc(C)cc43)CC2)cc1", "note": "(configuration not stated)", "activity change, negative = cytotoxicity": "inactive: -20.2%"}
{"smiles": "COc1ccc(S(=O)(=O)n2nc(C)c(S(=O)(=O)N3CCCCCC3)c2C)cc1OC", "activity change, negative = cytotoxicity": "inactive: 11.2%"}
{"smiles": "Cc1ccccc1C(=O)Nc1nnc(SCc2cc(=O)n3ccccc3n2)s1", "activity change, negative = cytotoxicity": "inactive: -1.99%"}
{"smiles": "CCOc1ccc(C(=O)CSc2nnc3cc(C)c4ccccc4n23)cc1", "activity change, negative = cytotoxicity": "inactive: -0.525%"}
{"smiles": "CCOc1cc(C(=O)Nc2nnc3n2CCS3)cc(OCC)c1OCC", "activity change, negative = cytotoxicity": "inactive: 12.5%"}
{"smiles": "COc1ccccc1CNC(=O)COc1cc(=O)n(C)c2ccccc12", "activity change, negative = cytotoxicity": "inactive: 4.94%"}
{"smiles": "CN1CCN(C(=O)c2ccc3c(c2)N(Cc2c(F)cccc2Cl)C(=O)c2ccccc2S3)CC1", "activity change, negative = cytotoxicity": "inactive: -5.96%"}
{"smiles": "CCc1sc(Nc2ccc(Cl)cc2)nc1-c1cc2cccc(OC)c2oc1=O", "activity change, negative = cytotoxicity": "inactive: -3.58%"}
{"smiles": "COc1ccc(-c2noc(N3CCN(c4cccc(Cl)c4)CC3)n2)cc1OC", "activity change, negative = cytotoxicity": "inactive: -5.57%"}
{"smiles": "CC(C(=O)Nc1ccc(F)c(Cl)c1)N1Cc2ccccc2C1=O", "note": "(configuration not stated)", "activity change, negative = cytotoxicity": "inactive: 7.15%"}
{"smiles": "Cc1cc(OCC(=O)Nc2cc(-c3nc4ccccc4[nH]3)ccc2C)ccc1Cl", "activity change, negative = cytotoxicity": "inactive: -10.5%"}
{"smiles": "CCSc1oc(-c2ccc(F)cc2)nc1S(=O)(=O)c1ccc(C)cc1", "activity change, negative = cytotoxicity": "inactive: -4.44%"}
{"smiles": "CCCCC(CC)CNC(=O)c1ccc2c(=O)n(CCOC)c(=O)[nH]c2c1", "note": "(configuration not stated)", "activity change, negative = cytotoxicity": "inactive: -9.93%"}
{"smiles": "Cc1ccc(N(CC(=O)NCC(C)c2ccccc2)S(=O)(=O)N(C)C)cc1", "note": "(configuration not stated)", "activity change, negative = cytotoxicity": "inactive: 6.59%"}
{"smiles": "CC(=O)c1cccc(S(=O)(=O)N2CCN(c3ccccc3F)CC2)c1", "activity change, negative = cytotoxicity": "inactive: -8.14%"}
{"smiles": "Cc1cc(S(=O)(=O)C(CNC(=O)COc2ccccc2)c2cccs2)ccc1F", "note": "(configuration not stated)", "activity change, negative = cytotoxicity": "inactive: 4.9%"}
{"smiles": "Cc1ccc(-c2nn(CC(=O)NC3CCCC3)c3c2cnc2ccc(F)cc23)cc1C", "activity change, negative = cytotoxicity": "inactive: 19.2%"}
{"smiles": "CCOc1cc2sc(N3CCC(C(=O)Nc4ccccc4Cl)CC3)nc2cc1Br", "activity change, negative = cytotoxicity": "inactive: 16.6%"}
{"smiles": "COc1ccc(OCCSc2nc(C)c(Cc3ccccc3)c(=O)[nH]2)cc1", "activity change, negative = cytotoxicity": "inactive: -2.98%"}
{"smiles": "COc1ccccc1Cn1cc(C(=O)c2ccc(Cl)cc2)c(=O)c2cc3c(cc21)OCCO3", "activity change, negative = cytotoxicity": "inactive: 1.42%"}
{"smiles": "COc1ccc(Oc2nc3c(c(=O)n(C)c(=O)n3C)n2Cc2ccccc2Cl)cc1", "activity change, negative = cytotoxicity": "inactive: -25.8%"}
{"smiles": "COc1ccc(NC(=O)CCN2CCN(CCO)CC2)c(OC)c1", "activity change, negative = cytotoxicity": "inactive: -1.62%"}
{"smiles": "O=C(Nc1ccc2nc(SCc3ccccc3)sc2c1)c1cccc(F)c1", "activity change, negative = cytotoxicity": "inactive: 7.77%"}
{"smiles": "COc1cc(C2c3c(-c4c(C)cc(C)cc4O)n[nH]c3C(=O)N2CCO)cc(OC)c1OC", "note": "(configuration not stated)", "activity change, negative = cytotoxicity": "inactive: 1.32%"}
{"smiles": "CN(C)S(=O)(=O)c1ccc(C(=O)NCCS(=O)(=O)N2CCN(c3ccccc3)CC2)cc1", "activity change, negative = cytotoxicity": "inactive: -5.07%"}
{"smiles": "Cc1ccc(-c2cc(-c3ccc4c(c3)NC(=O)CO4)nc3c2COc2ccc(C)cc2-3)cc1", "activity change, negative = cytotoxicity": "inactive: 19%"}
{"smiles": "Cc1ccc(CN(C(=O)COc2ccc(Cl)c(C)c2)c2ccccn2)o1", "activity change, negative = cytotoxicity": "inactive: -0.763%"}
{"smiles": "O=C(CN1C(=O)COc2ccc(S(=O)(=O)N3CCOCC3)cc21)N1CCN(c2cccc(C(F)(F)F)c2)CC1", "activity change, negative = cytotoxicity": "inactive: -1.64%"}
{"smiles": "Cc1ccc(C(=O)/C=C/c2cn(CC(O)CN3CCc4ccccc43)c3ccccc23)cc1", "note": "(configuration not stated)", "activity change, negative = cytotoxicity": "inactive: 1.67%"}
{"smiles": "COc1ccc(OC)c(CNC(=O)c2cc3cc4ccc(OC)cc4nc3o2)c1", "activity change, negative = cytotoxicity": "inactive: 4.14%"}
{"smiles": "Cc1cc(NC(=O)c2ccccc2Cl)ccc1NC(=O)c1ccccc1", "activity change, negative = cytotoxicity": "inactive: -0.815%"}
{"smiles": "COc1ccc(-c2noc(COc3cc(C)c(Br)c(C)c3)n2)cc1OC", "activity change, negative = cytotoxicity": "inactive: 4.79%"}
{"smiles": "COc1cccc(NC(=O)CSc2nc3c([nH]c4ccccc43)c(=O)n2-c2ccccc2)c1", "activity change, negative = cytotoxicity": "inactive: -2.49%"}
{"smiles": "CCOc1ccccc1NC(=O)CSc1nnc(N)s1", "activity change, negative = cytotoxicity": "inactive: -1.74%"}
{"smiles": "Cc1ccc(NC(=O)CSc2nnc(C)n3c2cc2sccc23)c(C)c1", "activity change, negative = cytotoxicity": "inactive: 18.1%"}
{"smiles": "Brc1ccc(-c2nnc3sc(CN4CCCCC4)cn23)cc1", "activity change, negative = cytotoxicity": "inactive: 18.8%"}
{"smiles": "Cc1ccccc1-c1nnc(CN2CCN(c3cccc(C)c3C)CC2)o1", "activity change, negative = cytotoxicity": "inactive: 1.91%"}
{"smiles": "COc1cc(C(=O)NCC(c2cccnc2)N2CCc3ccccc3C2)cc(OC)c1OC", "note": "(configuration not stated)", "activity change, negative = cytotoxicity": "inactive: -17.2%"}
{"smiles": "CCC(=O)Nc1ccccc1-c1nc2ccccc2n(CC(=O)c2ccc(C)c(C)c2)c1=O", "activity change, negative = cytotoxicity": "inactive: 3.46%"}
{"smiles": "COCCNC(=O)C(=O)NCC(c1cccnc1)N1CCN(c2ccccc2OC)CC1", "note": "(configuration not stated)", "activity change, negative = cytotoxicity": "inactive: 11.6%"}
{"smiles": "Cc1ccc(CSc2ccc(-c3cccs3)nn2)cc1", "activity change, negative = cytotoxicity": "inactive: -0.107%"}
{"smiles": "O=C(NCc1ccccc1Cl)c1cc2c(s1)-c1ccccc1SC2", "activity change, negative = cytotoxicity": "inactive: -13.6%"}
{"smiles": "O=C(NCc1ccco1)c1c[nH]c2ccc(S(=O)(=O)Nc3ccc(F)cc3F)cc2c1=O", "activity change, negative = cytotoxicity": "inactive: -1.31%"}
{"smiles": "CCCCNc1nc2c(S(=O)(=O)c3ccc(Cl)cc3)nnn2c2ccsc12", "activity change, negative = cytotoxicity": "inactive: -0.0981%"}
{"smiles": "COc1cccc(CNC(=O)c2ccc3c(c2)N(Cc2ccc(C(F)(F)F)cc2)C(=O)c2ccccc2S3)c1OC", "activity change, negative = cytotoxicity": "inactive: -5.25%"}
{"smiles": "CN1CCN(C(=O)c2cnn(-c3cccc(Cl)c3)c2C2CCN(C(=O)OC(C)(C)C)CC2)CC1", "activity change, negative = cytotoxicity": "inactive: -5.25%"}
{"smiles": "CC(C)CCNC(=O)CN1C(=O)c2cccnc2Oc2ccccc21", "activity change, negative = cytotoxicity": "inactive: 6.06%"}
{"smiles": "N#Cc1ccccc1S(=O)(=O)N1CCCC(c2nc3c(nnn3Cc3cccc(Cl)c3)c(=O)[nH]2)C1", "note": "(configuration not stated)", "activity change, negative = cytotoxicity": "inactive: -13.6%"}
{"smiles": "CN(C)c1ccc(C(CNC(=O)c2ccccc2F)N2CCc3ccccc32)cc1", "note": "(configuration not stated)", "activity change, negative = cytotoxicity": "inactive: 0.759%"}
{"smiles": "Cc1csc2nc(CCNS(=O)(=O)c3ccccc3)cn12", "activity change, negative = cytotoxicity": "inactive: 0.56%"}
{"smiles": "COC(=O)c1ccc([C@H]2Nc3ccc(S(=O)(=O)Nc4ccc(C)cc4)cc3[C@H]3C=CC[C@H]32)cc1", "activity change, negative = cytotoxicity": "inactive: -14.7%"}
{"smiles": "CCOC(=O)c1cc(-c2ccc(F)cc2)n(CC(=O)NCc2ccc(OC)cc2)c1C", "activity change, negative = cytotoxicity": "inactive: -4.28%"}
